Source: PubChem BioAssay (NCATS)
Values joined by “and” are separate entries in the source; they are usually repeats but may differ in a detail not shown here. Equal values may be shown once. Inconclusive means that the source gave no clear call. Such entries were picked first, then a sample of the others. For some of these results: A potency beside an inconclusive call is a rough fit, not a confirmed value. Active and inactive are the calls of the source. Unless noted, calls come from the whole dose curve; as a rule, active = well fitted curve in either direction with a large enough effect (not every such curve was filed as active); inconclusive = small, poorly fitted or top-dose-only effect, or another doubt; inactive = flat fitted curve, though single readings scatter.

Assay: Cell Viability - MRC5 (AID 434; calls by dose curve;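 note: potency is the fitted concentration of half-maximal effect; cells exposed to compound for 40 hours at 37 °C; potency reflects cytotoxicity seen as loss of intracellular ATP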)
Conditions: MRC5 lung fibroblast viability, qHTS
Outline: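 MRC5 normal human lung fibroblasts (1500/well) were treated with compounds for 40 hr at 37 °C in complete medium, and viable cells were measured as intracellular ATP by CellTiter-Glo luminescence. AC50 came from Hill fits, normalized to DMSO and 100 uM tamoxifen.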
Tags give direction and shape of the fitted curve.

Row | Compound | Potency
1 | CN(C)c1ccc(C(=C2C=CC(=[N+](C)C)C=C2)c2ccc(N(C)C)cc2)cc1 | active: 4.08 µM
2 | Cc1c(O)cccc1C(=O)N[C@@H](CSc1ccccc1)[C@H](O)CN1C[C@H]2CCCC[C@H]2C[C@H]1C(=O)NC(C)(C)C | active: 31.7 µM
3 | Nc1ncn([C@@H]2O[C@H](CO)[C@@H](O)[C@H]2O)c(=O)n1 | inconclusive: 89.3 µM [partial curve]
4 | CC(C)(C)CC(C)(C)c1ccc(OCCOCC[N+](C)(C)Cc2ccccc2)cc1 | inconclusive: 68.8 µM [single point]
5 | Oc1ccc(Cl)cc1Sc1cc(Cl)ccc1O | inconclusive: 46 µM [partial curve]
6 | Nc1c2ccccc2nc2ccccc12 | active: 38.2 µM
7 | CC/C(=C(\c1ccccc1)c1ccc(OCCN(C)C)cc1)c1ccccc1 | active: 60.3 µM

Assay: Cell Viability - SK-N-SH (AID 435; calls by dose curve;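 note: potency is the fitted concentration of half-maximal effect; compound exposure lasted 40 h at 37 °C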)
Conditions: SK-N-SH neuroblastoma cell viability qHTS
Outline: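 Human neuroblastoma line, 40 h exposure at 37 °C, ATP quantified via luciferase luminescence; DMSO and 100 uM tamoxifen define 0 and 100% inhibition for AC50 fitting.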

Row | Compound | Potency
8 | CN(C)c1ccc(C(=C2C=CC(=[N+](C)C)C=C2)c2ccc(N(C)C)cc2)cc1 | active: 1.8 µM
9 | Cc1c(O)cccc1C(=O)N[C@@H](CSc1ccccc1)[C@H](O)CN1C[C@H]2CCCC[C@H]2C[C@H]1C(=O)NC(C)(C)C | active: 24.5 µM
10 | Nc1ncn([C@@H]2O[C@H](CO)[C@@H](O)[C@H]2O)c(=O)n1 | active: 16.6 µM
11 | C=CCNC(N)=S | inactive: > 92 µM
12 | CC(C)(C)CC(C)(C)c1ccc(OCCOCC[N+](C)(C)Cc2ccccc2)cc1 | inconclusive: 85.8 µM [partial curve]
13 | Oc1c(Cl)cc(Cl)c(Cl)c1Cc1c(O)c(Cl)cc(Cl)c1Cl | inconclusive: 37.6 µM [partial curve]
14 | O=CCCCC=O | inconclusive: 115 µM [single point]
15 | Oc1ccc(Cl)cc1Sc1cc(Cl)ccc1O | inconclusive: 95 µM [partial curve]
16 | Nc1c2ccccc2nc2ccccc12 | active: 40.5 µM

Assay: NFAT Signaling Pathway (AID 444);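 note: carbachol stimulus at about its EC50 of 1 µM final; % is set by controls: 0 for no effect and ±100 for the full control effect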
Conditions: Jurkat NFAT-bla M1, carbachol, beta-lactamase ratio, 5 h; at 17.2 µM (top of the series)
Outline: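 Jurkat cells carrying an NFAT-driven β-lactamase reporter and co-transfected muscarinic M1 receptor were treated with compound plus carbachol (1 uM final, an EC50 level) for 5 h at 37 °C. CCF4 loading followed for 1 h at RT; 460/530 nm ratio gave %activity.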

Row | Compound | activity change, negative = inhibition
17 | CC(=O)OCC(=O)[C@@]12OC3(CCCC3)O[C@@H]1C[C@H]1[C@@H]3CCC4=CC(=O)C=C[C@]4(C)[C@@]3(F)[C@@H](O)C[C@@]12C | inconclusive: -36.7% [inhibitor]
18 | O=C1c2ccccc2C(=O)C1c1ccccc1 | inactive: -11.7%
19 | Nc1ccc(C(=O)NCC(=O)O)cc1 | inactive: 3.72%
20 | COc1cc(/C=C/C(=O)CC(=O)/C=C/c2ccc(O)c(OC)c2)ccc1O | inconclusive: -119% [inhibitor]
21 | CCCCOc1ccc(C(=O)CCN2CCCCC2)cc1 | inconclusive: -139% [inhibitor] and inconclusive: -130% [inhibitor]
22 | CCn1cc(C(=O)O)c(=O)c2cnc(N3CCCC3)nc21 | inactive: 5.83%
23 | O=C1NCN(c2ccccc2)C12CCN(CCCC(c1ccc(F)cc1)c1ccc(F)cc1)CC2 | inconclusive: -108% [inhibitor]
24 | COc1c2occc2c(OC)c2c(=O)cc(C)oc12 | inactive: 4.03% and inactive: 8.21%
25 | CC(C)(C)CC(C)(C)c1ccc(OCCOCC[N+](C)(C)Cc2ccccc2)cc1 | inconclusive: -51.9% [inhibitor]
26 | COc1c(C)c2c(c(O)c1C/C=C(\C)CCC(=O)O)C(=O)OC2 | inactive: -1.42%
27 | C=C(CC)C(=O)c1ccc(OCC(=O)O)c(Cl)c1Cl | inconclusive: -144% [inhibitor] and active: -133%
28 | COc1ccc(CCN2CCC(Nc3nc4ccccc4n3Cc3ccc(F)cc3)CC2)cc1 | inconclusive: -66.9% [inhibitor] and inconclusive: -96.8% [inhibitor]
29 | CNCCC(Oc1ccc(C(F)(F)F)cc1)c1ccccc1 (centres undefined) | inconclusive: -44.4% [inhibitor]
30 | CN1CCc2c(c3ccccc3n2Cc2ccccc2)C1 | inconclusive: -61% [inhibitor]
31 | CC1(C)O[C@@H]2C[C@H]3[C@@H]4C[C@H](F)C5=CC(=O)CC[C@]5(C)[C@H]4[C@@H](O)C[C@]3(C)[C@]2(C(=O)CO)O1 | inactive: 16.2%
32 | CN1CCN(CCCN2c3ccccc3Sc3ccc(S(=O)(=O)N(C)C)cc32)CC1 | inconclusive: -34.5% [inhibitor]
33 | CN1[C@@H]2CC(OC(=O)[C@H](CO)c3ccccc3)C[C@H]1[C@@H]1O[C@@H]12 (some centres undefined) | active: -78.1%
34 | CCC(C)n1ncn(-c2ccc(N3CCN(c4ccc(OCC5COC(Cn6cncn6)(c6ccc(Cl)cc6Cl)O5)cc4)CC3)cc2)c1=O (centres undefined) | inconclusive: -42.5% [inhibitor]
